# Hit rate of the full screen: of about 45,000 compounds, about 200 (0.44%) were called active. Roughly 7% stayed inconclusive and do not appear here. Calls follow the shape of the dose curve; as a rule, active = well fitted activation curve with a large enough effect; inconclusive = small, poorly fitted or top-dose-only effect; inactive = no such curve, though single readings can be large or run the other way. Some of the results follow.
# Assay: qHTS of TDP-43 Inhibitors: NCGC Sytravon Library Screen; also: nearly all actives have a fitted effect of over 55% in size; as to growth rescue (activation): 0% is about no effect
# Settings: yeast TDP-43 toxicity rescue, BacTiter-Glo growth, 24 h; series mostly up to 46.1 µM; growth rescue (activation): at the top concentration
# Method in brief: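 TDP-43-expressing yeast, pregrown in raffinose, seeded at OD600 0.02 in galactose medium with compound for 24 hr at 30 deg C. Growth read by BacTiter-Glo luminescence, so rescue of toxicity appears as activation.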
# Potency is read from the fitted curve at half-maximal effect.
Compound,growth rescue (activation),Potency
O=C(NCC(=O)N1CCN(C(c2ccccc2)c2ccccc2)CC1)c1ccccc1F,inactive: -17.5%,–
Cc1onc(-c2c(Cl)cccc2Cl)c1C(=O)NC1CCCCC1,inactive: 30.4%,–
Cc1nn(-c2ccccc2)c(N2CCCC2)c1C=O,inactive: -5.82%,–
COc1ccc2[nH]c(=O)c(CN(C(=O)c3ccco3)C(C)C)cc2c1,inactive: -8.32%,–
N#C/C(C(=O)NCCc1ccccc1)=C1/N=C(NC(=O)c2cccs2)c2ccccc21,inactive: 17.7%,–
COc1cc(NC(=O)C2=C(N3CCOCC3)/C(=C/c3ccc(Cl)cc3)CC2)cc(OC)c1OC,inactive: 21.6%,–
CCCn1c(-c2ccc[nH]c2=O)nc2ccccc21,inactive: 5.99%,–
C/C(Cc1ccccc1)=N/NC(=O)CNC(=O)C(c1ccccc1)c1ccccc1,inactive: 8.4%,–
CCc1cccc(CC)c1NC(=O)COC(=O)c1cccc(S(=O)(=O)N2CCc3ccccc3C2)c1,inactive: 11.3%,–
COc1cc(/C=N/NC(=O)C2CC(=O)N(c3ccc(C)cc3)C2)cc(OC)c1OC (stereo not drawn),inactive: 4.16%,–
COc1ccc(C(=O)CSc2nnc3ccccn23)cc1OC,inactive: -3.27%,–
CCN1CCN(C(c2ccc(OC)cc2)c2nnnn2Cc2ccc3c(c2)OCO3)CC1 (stereo not drawn),inactive: 8.31%,–
COc1ccc(Nc2nnc(C)c(=O)[nH]2)c(OC)c1,inactive: 9.59%,–
COc1ccc(CCNC(=O)c2cc(-c3ccco3)on2)cc1OC,inactive: 15.3%,–
O=c1[nH]c2ccccc2nc1/C=C/c1ccc(F)cc1,inactive: 9.26%,–
CCc1nc2c(OCc3cccc(Cl)c3)cccn2c1N(C)C(C)=O,inactive: 3.85%,–
CCN(c1ccc(OC)cc1)S(=O)(=O)c1nnc(NC(=O)C(C)C)s1,inactive: -0.215%,–
Cc1c(N2C(=O)c3ccc4c5c(ccc(c35)C2=O)CC4)c(=O)n(-c2ccccc2)n1C,inactive: 5.71%,–
N#CCCN(C(=O)COc1ccc(F)cc1Br)c1ccccc1F,inactive: 6.62%,–
N#Cc1ccccc1OCc1nnc(-c2ccccc2Br)o1,inactive: 5.51%,–
Cn1cc(Cl)c(C(=O)Nc2nccs2)n1,inactive: -3.31%,–
COc1cccc(C(=O)Nc2cc(S(=O)(=O)N3CCCCC3)ccc2OC)c1,inactive: 9.53%,–
CCOC(=O)c1ccccc1Cc1nc2ccccc2c(=O)[nH]1,inactive: 3.86%,–
O=c1[nH]c(CN2CCN(c3ccccc3O)CC2)nc2ccccc12,inactive: 7.6%,–
O=C(Nc1nc2ccc(S(=O)(=O)N3CCCC3)cc2s1)c1ccco1,inactive: -16.3%,–
CCC(C)c1ccccc1NC(=O)COc1ccc(-c2nnco2)cc1 (stereo not drawn),inactive: 24.4%,–
Cc1cccc(NC(=O)Cc2c(F)cccc2Cl)n1,inactive: 14.6%,–

Compound,growth rescue (activation),Potency
CCCCNC(=O)C1(C)CCCCN1C(=O)c1ccc(F)cc1Cl (stereo not drawn),inactive: 6.04%,–
COc1ccccc1Oc1ccnc2cc(Cl)ccc12,inactive: 7.44%,–
CC(C)N(C)C(=O)CCc1nnc(CCc2c[nH]c3ccccc23)o1,inactive: -2.17%,–
COc1ccc(CCNC(=O)C2CCCN(S(C)(=O)=O)C2)cc1 (stereo not drawn),inactive: -24.3%,–
Cc1ccc(-n2c(C)nnc2SCC(=O)N2CCOCC2)cc1,inactive: 24.1%,–
Cc1cc(NC(=O)CCC(=O)N(CC(=O)NC2CCCC2)Cc2ccc3c(c2)OCO3)no1,inactive: 12.8%,–
CN(Cc1ccccc1)C(=O)[C@H]1CCC(=O)N1Cc1ccco1,inactive: 2.92%,–
COc1ccc(N(CC(O)Cn2c(C)nc3ccccc32)S(=O)(=O)c2ccccc2)cc1 (stereo not drawn),inactive: -3.52%,–
CCOC(=O)c1c(NC(=O)CNC2CCCc3ccccc32)sc(C(N)=O)c1C (stereo not drawn),inactive: -4.25%,–
O=C(NCc1ccccc1)NCc1cccs1,inactive: 16.1%,–
C/C(=N/NC(=O)c1ccc2c(c1)OCCO2)c1ccc([N+](=O)[O-])cc1,inactive: 9.78%,–
Cc1cccc(C2NC(c3cccc(C)c3)C([N+](=O)[O-])C(C)(C)C2[N+](=O)[O-])c1 (stereo not drawn),inactive: 16.1%,–
Cc1ccc(C(=O)Nc2cc(C)nn2CCC#N)cc1,inactive: -5.12%,–
N#CCc1nc2ccc(S(=O)(=O)N3CCOCC3)cc2s1,inactive: -25.4%,–
Cc1ccnc(N/C=C(/NC(=O)c2ccccc2)C(=O)N/N=C\c2ccc(F)cc2)n1,inactive: -8.32%,–
CN(C)c1ccc(/C=[N+](\[O-])C2N(c3ccccc3)C(=S)SC2(C)C)cc1 (stereo not drawn),inactive: -19.9%,–
CC(C)CC(=O)NC(=S)NNC(=O)c1ccc([N+](=O)[O-])cc1,–,active: 11.2 µM
CC(c1ccccc1)N1CC(C(=O)Nc2nccs2)CC1=O (stereo not drawn),inactive: 17.3%,–
Cc1ccc2nc(Cl)c3cc(C(=O)NCCCN4CCCC4)sc3c2c1,inactive: 8.7%,–
CCc1nc2c(OCC=C(C)C)cccn2c1N(C)C(=O)c1ccccc1F,inactive: 8.72%,–
CCNC(=O)Nc1ccc2c(c1)c(=O)n(C)n2Cc1ccc(Cl)cc1,inactive: 11.5%,–
COc1ccc(NC(=O)COC(=O)COc2ccc(Br)cc2)cc1,inactive: -12.2%,–
Cc1cc(NC(=O)CSc2nc3c(cnn3-c3cccc(Cl)c3)c(=O)[nH]2)no1,inactive: 23%,–
COc1cccc(CNC(=O)CCC2CCCN(C(=O)c3cc(C)[nH]n3)C2)c1 (stereo not drawn),inactive: 5.37%,–
CC(=O)Nc1cccc(-c2ccnc3c2CC(C(=O)Nc2ccc4c(c2)OCO4)O3)c1 (stereo not drawn),inactive: -7.94%,–
COc1cc(/C=C/C(=O)N2CCCc3ccccc32)cc(OC)c1OC,inactive: 21.1%,–
